Assay results as given in the RNAGym collection of RNA variant scans (doi:10.7554/elife.90254).
Read counts are not given, so values of variants with three or more changes are uncertain.

B1: LINE1-mini (parent)
chain: GGCAGAGCUCAACACAGCGUGGCAAAGUGGCUGUGGCUAGACUGCC

Variants of: B1
Test: self-cleavage, relative activity (ratio to wild type); higher = more cleavage; in vitro, sequencing; the parent is a self-cleaving ribozyme

Row | Variant | self-cleavage
1 | C18A U34C A41U G44C | 0
2 | C18A U34G A41U | 0.04
3 | C18A U43G G44C | 0.02
4 | C18A U43G G44U | 0.03
5 | C18G A24C C45U | 0.16
6 | C18G A24C U32C U38A C46G | 0
7 | C18G A24C U38C | 0.07
8 | C18G A24U G29C C46A | 0.69
9 | C18G A25G A26C | 0.02
10 | C18G A25G C31A | 0.12
11 | C18G A25U U34C | 0
12 | C18G A26C A39U | 0.26
13 | C18G A26G C42G C46A | 0.06
14 | C18G A26U U43G | 0.03
15 | C18G A39G G40C | 0.05
16 | C18G C23G G29U G44U | 0.02
17 | C18G C23U A25C G36U | 0.12
18 | C18G C23U G29C G30A C31A C37U | 0
19 | C18G C23U G29C G30A G44U | 0.17
20 | C18G C31A C45G | 0.03
21 | C18G C31U G35C | 0.11
22 | C18G C31U G36A C37A | 0.02
23 | C18G C31U G36U | 0.05
24 | C18G C45U C46A | 0.08

Row | Variant | self-cleavage
25 | C18G G19A G21A G22C C23U C31U | 0.03
26 | C18G G19C C37A C42U C45A | 0.01
27 | C18G G19C C37U | 0.79
28 | C18G G19U G30A A41G | 0.58
29 | C18G G19U G33U U38G C46G | 0.05
30 | C18G G21A G22C G33C | 0.01
31 | C18G G21C A26U | 0.48
32 | C18G G21C G27C G33U | 0.04
33 | C18G G21U U28G G35U | 0.01
34 | C18G G22A A26U C31G | 0.13
35 | C18G G22C C23A G40C | 0.07
36 | C18G G22U C46U | 0.14
37 | C18G G22U G36C | 0.02
38 | C18G G27A U34C G44U | 0.04
39 | C18G G27U G30U | 2.75
40 | C18G G29U C42A | 0.09
41 | C18G G30A U34G | 0.11
42 | C18G G30A U38C U43A | 0.03
43 | C18G G30C C31A C37U C46U | 0.01
44 | C18G G33C U38C | 0.01
45 | C18G G35U G36U | 0.02
46 | C18G G36C A41U | 0.02
47 | C18G U20A A25U G30C | 0.16
48 | C18G U20A C23A G33U C46U | 0.01

Row | Variant | self-cleavage
49 | C18G U20A C31U C46A | 0.05
50 | C18G U20A G22C | 0.95
51 | C18G U20C C45U | 0.13
52 | C18G U20G C31U | 0.01
53 | C18G U28A G29A C31U | 0.04
54 | C18G U28A G36C C45G | 0.01
55 | C18G U28G C37A | 0.06
56 | C18G U28G U38G C45A | 0.01
57 | C18G U32G G33U C46G | 0.04
58 | C18G U32G G35A G44U C45A | 0.02
59 | C18G U34A G40U | 0
60 | C18G U34C G35A G40U | 0.04
61 | C18G U38A C42A | 0.08
62 | C18U A24U A26G G40U | 0.03
63 | C18U A25C C31U | 0.05
64 | C18U A25C G29A | 0.46
65 | C18U A25C G33U | 0.03
66 | C18U A25U U34C C37G G44A | 0.04
67 | C18U A26C G27C G30C A39C | 0.32
68 | C18U A26C U38A | 0.45
69 | C18U A26G G40C | 0.03
70 | C18U A26U A41U | 0.73
71 | C18U A41C U43G | 0.05
72 | C18U C23A C45U | 0.94

Row | Variant | self-cleavage
73 | C18U C23A G33A G35U G40C C46G | 0.01
74 | C18U C23G C42G | 0.03
75 | C18U C23U A24G G29A | 1
76 | C18U C23U A24U G33A | 0.04
77 | C18U C23U A41U G44A | 0.06
78 | C18U C31U G35A | 0.02
79 | C18U C31U G35C | 0.05
80 | C18U C37G C42U | 0.02
81 | C18U C37G G44U C46U | 0.03
82 | C18U G19A A39G | 0.06
83 | C18U G19A U32A U34C | 0.02
84 | C18U G19C A39U | 0.07
85 | C18U G19C G44U | 0.07
86 | C18U G19U G21U | 1.55
87 | C18U G21A G22A C23G A25U A26G U38C | 0.14
88 | C18U G21A G30C G36U | 0.07
89 | C18U G21C G40U | 0.1
90 | C18U G21U A26G | 1.34
91 | C18U G21U C42A | 0.06
92 | C18U G21U G27C G44C | 0.15
93 | C18U G21U G35U | 0.05
94 | C18U G21U U32G | 0.09
95 | C18U G22A C23G G35U | 0.03
96 | C18U G22U A24G G40C | 0.01

Row | Variant | self-cleavage
97 | C18U G22U A25C A41C | 0.04
98 | C18U G22U G29U | 2.61
99 | C18U G22U G36C | 0.05
100 | C18U G27U C31A | 0.57
101 | C18U G27U G35C A39U C46U | 0.01
102 | C18U G29A G30C | 1.41
103 | C18U G29A U32G G44U | 0.04
104 | C18U G29C G40A G44A | 0.01
105 | C18U G29C G40C U43C C45A | 0.06
106 | C18U G29C U34A C37G | 0.01
107 | C18U G29U A41U | 1.36
108 | C18U G29U G35A | 0.17
109 | C18U G29U G35C C46A | 0.05
110 | C18U G29U G40U A41G | 0.24
111 | C18U G30A G44U | 0.09
112 | C18U G30C C31G | 0.28
113 | C18U G30U C37G | 0.02
114 | C18U G33C C46U | 0.02
115 | C18U G33U U34C | 0.02
116 | C18U G35A C37U | 0.1
117 | C18U G35A U43C | 0.04
118 | C18U G35C G44C C45A | 0
119 | C18U U20A G27U G33A | 0.03
120 | C18U U20C C37G C45U | 0.02

Row | Variant | self-cleavage
121 | C18U U20C U43A | 0.04
122 | C18U U20G G35U U43C | 0.02
123 | C18U U20G G44A | 0.05
124 | C18U U28A C31G G35U | 0.02
125 | C18U U28G U32A | 0.06
126 | C18U U32C C45G | 0.03
127 | C18U U34A C37U A39U | 0.03
128 | C18U U34G G40U | 0.03
129 | C18U U38C A41U U43G | 0.05
130 | G19A A24G C31A | 0.56
131 | G19A A24G G27C G35C G36U U43C | 0.06
132 | G19A A25C U28C G30A | 0.37
133 | G19A A26C C37A U38C G44A | 0.07
134 | G19A A26G U28A U32A | 0.02
135 | G19A A26G U43C | 0.1
136 | G19A A39C A41C G44C | 0.04
137 | G19A A39U A41U | 0.67
138 | G19A A39U C42U | 0.47
139 | G19A A41G U43G | 0.1
140 | G19A C23A G36U C42A G44A | 0.12
141 | G19A C23A U32G | 0.21
142 | G19A C23G G44A | 0.21
143 | G19A C23G U34A C42A | 0.06
144 | G19A C23U A26G G27U | 0.09

Row | Variant | self-cleavage
145 | G19A C23U G29U | 0.36
146 | G19A C23U U28C G29A | 0.9
147 | G19A C31A G40U C42A | 0.03
148 | G19A C31U C37G U38G | 0.01
149 | G19A C37G G44U | 0.03
150 | G19A C37U G40A | 0.36
151 | G19A C37U U43C C45U | 0.07
152 | G19A G21A A25C A26C A41U C45A | 0.11
153 | G19A G21A A26U G40A | 0.04
154 | G19A G21A A41C | 0.16
155 | G19A G21C U32G A41G C45G | 0
156 | G19A G21U C23G A25G | 0.32
157 | G19A G21U C37U | 0.19
158 | G19A G22A C23A U28C C45U | 0.91
159 | G19A G22A C31A G33C | 0.02
160 | G19A G22A G36A | 0.06
161 | G19A G22C C37U | 0.02
162 | G19A G22U A26C A39G | 0.09
163 | G19A G22U G27A U32C | 0.52
164 | G19A G22U G29A G30U | 1.92
165 | G19A G22U G33U G44U | 0.02
166 | G19A G27A C46U | 1.92
167 | G19A G27C C37G A41C | 0.03
